The other results are listed elsewhere or left out. Cleavage of a single-stranded DNA pool by Rep nickase domains was read by sequencing (1 h at 37 °C, 3 µM enzyme); the outer parts of the 90-letter strands are left off. A value is the log2 ratio of uncut reads to the pool without enzyme; the lower, the more was cut; hits are not called. The scaling is to total reads; where an enzyme cuts many sequences, the uncut ones exceed 0.
Experiments:
Assay in all cases: uncleaved DNA left, log2 of reads against the no-enzyme library (log2 ratio); higher = less cleavage (more negative = more Rep cleavage of the k-mer); sequences stand for … in CTCGTCCG…ACCGGAGA
[1] = tested on: T1, Rep nickase domain of Muscovy duck circovirus
T1 sequence (Rep 1-111, printed without the tag): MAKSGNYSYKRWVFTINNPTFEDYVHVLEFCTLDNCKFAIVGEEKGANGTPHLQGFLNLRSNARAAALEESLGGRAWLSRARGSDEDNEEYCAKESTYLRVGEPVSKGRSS
Method: (§1)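 A pool of 90-nt single-stranded DNAs with seven random bases just before the constant AC of the nick site (name = the seven bases) was cut by 3 µM recombinant His6-SUMO-tagged Rep nickase domain (300 nM DNA, 50 mM HEPES pH 8.0, 50 mM NaCl, 1 mM MnCl2, 1 h, 37 °C, three replicates). Uncut DNA was amplified and sequenced.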

[2] = tested on: T2, Rep nickase domain of banana bunchy top virus
T2 sequence (Rep 1-94, printed without the tag): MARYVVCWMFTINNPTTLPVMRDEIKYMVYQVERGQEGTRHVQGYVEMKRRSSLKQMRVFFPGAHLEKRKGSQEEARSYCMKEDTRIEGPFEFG
Method: as §1

[3] = tested on: T3, Rep nickase domain of cabbage leaf curl virus
T3 sequence (Rep 1-116, printed without the tag): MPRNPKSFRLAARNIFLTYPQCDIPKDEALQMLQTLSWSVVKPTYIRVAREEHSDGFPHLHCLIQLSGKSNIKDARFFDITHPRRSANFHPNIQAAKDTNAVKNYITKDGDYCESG
Method: as §1

[4] = tested on: T4, Rep nickase domain of chickpea chlorotic dwarf virus
T4 sequence (Rep 1-124, printed without the tag): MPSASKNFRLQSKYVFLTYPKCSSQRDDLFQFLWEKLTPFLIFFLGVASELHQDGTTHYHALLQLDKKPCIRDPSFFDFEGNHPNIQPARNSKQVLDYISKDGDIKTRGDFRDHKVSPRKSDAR
Method: as §1

[5] = tested on: T5, Rep nickase domain of faba bean necrotic yellows virus
T5 sequence (Rep 1-98, printed without the tag): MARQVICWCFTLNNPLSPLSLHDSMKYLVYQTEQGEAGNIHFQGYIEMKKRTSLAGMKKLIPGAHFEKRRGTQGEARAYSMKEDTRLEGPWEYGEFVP
Method: as §1

[6] = tested on: T6, Rep nickase domain of maize striate mosaic virus
T6 sequence (Rep 1-117, printed without the tag): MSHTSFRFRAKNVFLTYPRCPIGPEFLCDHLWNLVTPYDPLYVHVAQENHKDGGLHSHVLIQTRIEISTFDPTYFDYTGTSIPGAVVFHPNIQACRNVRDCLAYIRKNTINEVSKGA
Method: as §1

[7] = tested on: T7, Rep nickase domain of porcine circovirus 2
T7 sequence (Rep 2-116, printed without the tag): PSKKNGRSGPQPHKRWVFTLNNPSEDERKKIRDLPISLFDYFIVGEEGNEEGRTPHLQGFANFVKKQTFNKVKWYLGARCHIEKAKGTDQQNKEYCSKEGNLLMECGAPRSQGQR
Method: as §1

[8] = tested on: T8, Rep nickase domain of tomato yellow leaf curl virus
T8 sequence (Rep 1-136, printed without the tag): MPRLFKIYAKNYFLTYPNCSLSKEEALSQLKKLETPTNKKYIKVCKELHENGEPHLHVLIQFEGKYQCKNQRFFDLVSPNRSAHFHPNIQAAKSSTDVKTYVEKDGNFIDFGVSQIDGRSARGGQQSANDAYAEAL
Method: as §1

[9] = tested on: T9, Rep nickase domain of wheat dwarf virus
T9 sequence (Rep 1-137, printed without the tag): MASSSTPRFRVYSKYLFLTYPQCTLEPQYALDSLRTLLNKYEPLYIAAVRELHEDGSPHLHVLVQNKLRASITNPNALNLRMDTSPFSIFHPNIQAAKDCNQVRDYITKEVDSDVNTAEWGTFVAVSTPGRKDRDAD
Method: as §1

| Sequence | uncleaved DNA left (log2) [1] | uncleaved DNA left (log2) [2] | uncleaved DNA left (log2) [3] | uncleaved DNA left (log2) [4] | uncleaved DNA left (log2) [5] | uncleaved DNA left (log2) [6] | uncleaved DNA left (log2) [7] | uncleaved DNA left (log2) [8] | uncleaved DNA left (log2) [9] |
| --- | --- | --- | --- | --- | --- | --- | --- | --- | --- |
| GTCTGTG | 0.0877 | 0.0506 | 0.214 | 0.444 | 0.134 | 0.748 | 0.196 | 0.111 | 0.0806 |
| GCGCCGA | 0.00138 | 0.00799 | 0.00927 | 0.146 | 0.0565 | -0.154 | 0.0678 | 0.0618 | 0.0207 |
| TTTTGCG | -0.135 | -0.137 | 0.0626 | 0.975 | -0.000292 | 1.3 | -0.0539 | -0.364 | -0.0995 |
| GTTTTCA | 0.103 | 0.123 | 0.395 | 1.01 | -0.00675 | 1.9 | 0.181 | 0.136 | 0.192 |
| GTGAGGG | 0.0812 | 0.00864 | 0.203 | 0.625 | -0.0731 | 0.382 | 0.111 | -0.0115 | -0.0108 |
| ACCTGAC | -0.0875 | -0.242 | -0.172 | 0.246 | -0.176 | -0.28 | -0.0858 | -0.117 | -0.148 |
| GTGAACT | 0.0264 | 0.0939 | 0.381 | 0.806 | 0.0261 | 1.82 | 0.0298 | 0.0877 | 0.171 |
| TGCCTGC | 0.0649 | 0.123 | 0.314 | 0.497 | 0.077 | 0.739 | 0.192 | 0.0637 | 0.0183 |
| GAGCCAT | -0.0143 | 0.115 | 0.7 | 1.51 | -0.0778 | 1.9 | 0.00507 | -0.0487 | 0.192 |
| TTGCCGA | -0.00832 | -0.207 | -0.856 | -0.492 | -0.102 | -0.96 | -0.19 | -0.00668 | -0.261 |
| TAATCTG | -0.00925 | -0.036 | -0.495 | -0.923 | 0.0292 | 0.611 | 0.132 | -0.0205 | -0.0206 |
| CAGGAGG | 0.0835 | -0.144 | 0.0872 | 0.383 | 0.00135 | -0.284 | 0.134 | -0.101 | -0.0255 |
| TCGGTTC | -0.171 | 0.0336 | 0.312 | -0.0276 | -0.0878 | 0.665 | 0.0945 | -0.0818 | -0.0341 |
| AACTCAC | -0.0608 | -0.147 | -0.251 | -0.627 | 0.0506 | -0.582 | -0.868 | -0.068 | -0.015 |
| TCCGTCC | -0.0676 | -0.0304 | 0.287 | 0.0768 | -0.0248 | 0.152 | -0.0154 | -0.0276 | -0.00648 |
| AATGTGT | 0.0149 | -0.107 | -0.333 | -0.737 | 0.0657 | -0.835 | -0.319 | -0.0429 | -0.00657 |
| AAGCGTC | 0.147 | 0.0547 | -0.0882 | -0.196 | 0.0161 | -0.44 | 0.129 | 0.0447 | -0.0155 |
| CGTGGCT | -0.0247 | 0.0677 | -0.238 | -0.257 | -0.00596 | -0.446 | 0.0801 | -0.0181 | -0.0129 |
| ACCCAGG | 0.0884 | 0.218 | -0.25 | 0.0499 | 0.0633 | -0.683 | 0.166 | 0.0777 | 0.121 |
| CTAGACG | -0.06 | -0.168 | -0.717 | -0.976 | -0.143 | -1.15 | 0.0864 | -0.0518 | -0.168 |
| TAAAGTG | 0.028 | -0.0688 | -1.25 | -2.23 | -0.0105 | -1.09 | 0.139 | 0.0138 | -0.124 |
| ACGCACT | -0.116 | -0.15 | -0.324 | -1.72 | -0.068 | -0.671 | -0.183 | -0.217 | -0.159 |
| GTGATCT | 0.0794 | 0.15 | 0.4 | 0.962 | 0.0715 | 1.85 | 0.155 | 0.0919 | 0.0948 |
| GTAGCTT | -0.109 | 0.0679 | 0.35 | 0.641 | -0.0344 | 1.62 | 0.0379 | 0.0682 | 0.125 |
| CGCGCTG | -0.115 | -0.0805 | -0.0144 | 0.548 | -0.0334 | 1.51 | -0.0567 | -0.148 | -0.0707 |
| CTCTGGC | 0.0171 | 0.0315 | -0.247 | -0.527 | 0.0596 | -0.939 | 0.0915 | 0.024 | -0.0619 |
| AGGTTCC | 0.00164 | 0.0109 | 0.128 | 0.193 | -0.0606 | 0.633 | -0.181 | -0.0818 | 5.98e-05 |
| AGCAGTG | 0.000401 | 0.069 | -0.136 | 0.346 | 0.0193 | 0.976 | 0.051 | -0.154 | 0.01 |

— the supplement of paper PMC7826260
